We go through 1 molecule from patent US20040023883A1 (published 2004).

The target in the test is T1, human IGFBP-1 (human, UniProt P08833 26-259).
T1 construct: Recombinant secreted protein
T1 sequence (looked up): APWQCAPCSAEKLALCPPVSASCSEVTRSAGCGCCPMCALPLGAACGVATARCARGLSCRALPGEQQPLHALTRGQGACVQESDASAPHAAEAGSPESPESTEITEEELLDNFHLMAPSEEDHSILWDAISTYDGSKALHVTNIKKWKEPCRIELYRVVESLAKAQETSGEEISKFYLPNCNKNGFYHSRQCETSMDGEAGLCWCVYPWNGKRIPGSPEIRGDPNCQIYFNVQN
The experiment in a line: competitive phage ELISA. The method, then:
E. coli cells (XL1-Blue, Stratagene) freshly transformed with phagemid vector were grown overnight in 5 mL 2YT medium (Sambrook et al, supra) in the presence of M13-VCS helper phage (Stratagene). Phage particles were harvested and resuspended in PBS buffer as described in Lowman, H. B., “Phage Display of Peptide Libraries on Protein Scaffolds,” in Cabilly, S. (ed.), Combinatorial Peptide Library Protocols (Humana Press Inc.: Totowa, N.J., 1998), pp. 249-264. Then phage concentrations were normalized to yield a maximal ELISA signal of 0.2-0.4 for each mutant (Lowman, in Cabilly, S. (ed.), supra). […] After blocking, the plates containing immobilized target were washed with 0.05% TWEEN™/PBS buffer and subsequently incubated with 80 μl/well of the premixed phage-competitor solutions for 1 hour at room temperature. After washing, bound phage was detected with 80 μl/well of a solution containing a primary rabbit anti-phage polyclonal antibody and a secondary goat anti-rabbit monoclonal antibody-horseradish peroxidase conjugate in 0.5% TWEEN 20™/PBS. o-Phenylenediamine (Sigma) and tetramethylbenzidine (Kirkegaard and Perry) were used as chromogenic substrates, resulting in product detection at 492 and 450 nm, respectively. IC₅₀ values were determined by fitting the binding data to a generic saturation curve (Lowman, in Cabilly, S. (ed.), supra).
A general note: ELISA stands for enzyme-linked immunosorbent assay.

B1: IGF-I S1A on phage (G1S-A70V template) (ligand, not shown: large carriers)
chain: not shown
Regarding B1, the binding result is “binds”.
